Results on 64 compounds are retold here after the supplement of paper PMC2702839.

SMILES strings stand for the structures. Where a name gives a salt, the structure may show the parent alone. This is one part of the list.

In the assay the test system is Schistosoma mansoni schistosomula. In words: phenotypic hit in primary schistosomula screen (any phenotype vs DMSO control) (binary (1 = hit, 0 = no phenotype)); higher = active (phenotype induced). The following applies: 1 µM; time (d): 7.
Take `COc1ccc2c(=O)c(-c3cc4c(cc3OC)OCO4)coc2c1` [cuneatin methyl ether]: the phenotypic hit is inactive: 0.

Regarding `COc1ccc(-c2cc(=O)c3c(O)cc(O)c(-c4cc(-c5cc(=O)c6c(O)cc(O)cc6o5)ccc4OC)c3o2)cc1` [isoginkgetin], the phenotypic hit was inactive: 0.

In the case of `CC(=O)Nc1ccccc1` [acetanilide], the phenotypic hit was inactive: 0.

As to `COC(=O)[C@H]1[C@H]2C[C@H]3c4[nH]c5ccccc5c4CCN3C[C@@H]2CC[C@@H]1O` [corynanthine], the phenotypic hit was inactive: 0.

Take `CSc1ccc2c(c1)C(N1CCN(C)CC1)Cc1ccccc1S2` (centres undefined) [Methiothepin mesylate]: the phenotypic hit is inactive: 0.

For `NC(=O)c1cc[n+](CC2=C(C(=O)O)N3C(=O)[C@@H](NC(=O)[C@@H](c4ccccc4)S(=O)(=O)[O-])[C@H]3SC2)cc1` [cefsulodin sodium], the phenotypic hit was inactive: 0.

For `CC1(C)S[C@@H]2[C@H](NC(=O)[C@H](NC(=O)N3CCNC3=O)c3ccccc3)C(=O)N2[C@H]1C(=O)O` [azlocillin sodium], the phenotypic hit was inactive: 0.

As to `COC(=O)Nc1nc2cc(C(=O)c3ccccc3)ccc2[nH]1` [mebendazole], the phenotypic hit was inactive: 0.

Turning to `CCCCCCc1ccc(O)cc1O.Nc1c2ccccc2nc2ccccc12` [acrisorcin], the phenotypic hit was inactive: 0.

With `CC1(C)CC[C@]2(C)CC[C@]3(C)C(=CC[C@@H]4[C@@]5(C)CC[C@H](O)C(C)(C)[C@@H]5CC[C@]43C)[C@@H]2C1` [beta-amyrin], the phenotypic hit is inactive: 0.

Take `Cc1onc(-c2c(Cl)cccc2Cl)c1C(=O)N[C@@H]1C(=O)N2[C@@H]1SC(C)(C)[C@@H]2C(=O)O` [dicloxacillin sodium]: the phenotypic hit was inactive: 0.

As to `CN1C(C)(C)CCCC1(C)C` [pempidine tartrate], the phenotypic hit was inactive: 0.

For the compound `Cc1cc(O)c(C=O)c2c1C(=O)Oc1c(C)c(O)c3c(c1O2)C(O)OC3=O` (centres undefined) [norstictic acid], the phenotypic hit is inactive: 0.

In the case of `CC[N+](C)(C)Cc1ccccc1Br` [bretylium tosylate], the phenotypic hit was inactive: 0.

Regarding `C[N+](C)(C)CCCCCC[N+](C)(C)C` [Hexamethonium dichloride], the phenotypic hit was inactive: 0.

Turning to `CN(C)/N=N/c1[nH]cnc1C(N)=O` [dacarbazine], the phenotypic hit was inactive: 0.

As to `O=C(O)c1cccnc1Nc1cccc(C(F)(F)F)c1` [niflumic acid], the phenotypic hit is inactive: 0.

As to `COc1ccc(C(Cl)=C(c2ccc(OC)cc2)c2ccc(OC)cc2)cc1` [chlorotrianisene], the phenotypic hit was inactive: 0.

Consider `Cc1oncc1C(=O)Nc1ccc(C(F)(F)F)cc1` [lefunamide], for which the phenotypic hit is inactive: 0.

Take `CSCC[C@H](NC=O)C(=O)N[C@@H](CC(C)C)C(=O)N[C@@H](Cc1ccccc1)C(=O)O` [n-formylmethionyl-leucylphenylalanine]: the phenotypic hit is inactive: 0.

For the compound `CC(C)CCCCCOC(=O)COc1cc(Cl)c(Cl)cc1Cl` [2,4,5-trichlorophenoxyacetic acid, isooctyl ester], the phenotypic hit is inactive: 0.

Regarding `CCOC(=O)[C@H](CCc1ccccc1)N[C@@H](C)C(=O)N1Cc2ccccc2C[C@H]1C(=O)O` [quinapril hydrochloride], the phenotypic hit was inactive: 0.

For `CC(CCc1ccccc1)NCC(O)c1ccc(O)c(C(N)=O)c1` (centres undefined) [labetalol hydrochloride], the phenotypic hit is inactive: 0.

On to `CC(C)CCC[C@@H](C)C1CC[C@H]2[C@@H]3CCC4CC(=O)CC[C@]4(C)[C@H]3CC[C@]12C` (some centres undefined) [cholestanone], for which the phenotypic hit was inactive: 0.

With `O=C(CCc1ccc(O)cc1)c1c(O)cc(O)cc1O` [phloretin], the phenotypic hit is inactive: 0.

On to `CC[C@H](C)[C@H](N)C1=N[C@H](C(=O)N[C@@H](CC(C)C)C(=O)N[C@H](CCC(=O)O)C(=O)N[C@H](C(=O)N[C@H]2CCCCNC(=O)[C@H](CC(N)=O)NC(=O)[C@@H](CC(=O)O)NC(=O)[C@H](Cc3cnc[nH]3)NC(=O)[C@@H](Cc3ccccc3)NC(=O)[C@H]([C@@H](C)CC)NC(=O)[C@@H](CCCN)NC2=O)[C@@H](C)CC)CS1` [bacitracin], for which the phenotypic hit is inactive: 0.

In the case of `COc1ccc(OC)c(C(O)CNC(=O)CN)c1` (centres undefined) [midodrine hydrochloride], the phenotypic hit is inactive: 0.

In the case of `CN1CCN(CCCN2c3ccccc3Sc3ccc(C(F)(F)F)cc32)CC1` [Trifluoperazine dihydrochloride], the phenotypic hit is inactive: 0.

Consider `C=CC(C)(O)CCC1C(=C)CC(OC(C)=O)C2C(C)(C)CCCC12C` (centres undefined) [larixol acetate], for which the phenotypic hit is inactive: 0.

Turning to `CNC[C@H](O)c1ccc(O)c(O)c1` [adrenaline bitartrate], the phenotypic hit is inactive: 0.

Consider `COC(=O)C[C@H]1C(C)(C)C2(O)OC34CC2C(=O)[C@]1(C)C3CC[C@]1(C)C4=CC(=O)O[C@H]1c1ccoc1` (stereo partly drawn) [8beta-hydroxycarapin, 3,8-hemiacetal], for which the phenotypic hit is inactive: 0.

On to `Oc1cc(O)c2c(c1)O[C@H](c1cc(O)c(O)c(O)c1)[C@H](O)C2` [epigallocatechin], for which the phenotypic hit is inactive: 0.

With `O=C1c2ccc(O)c(O)c2C(=O)c2c(O)ccc(O)c21` [quinalizarin], the phenotypic hit is inactive: 0.

As to `CN(C)CCOC(C)(c1ccccc1)c1ccccn1` (centres undefined) [doxylamine succinate], the phenotypic hit was inactive: 0.

On to `COc1ccc(-c2cc(=O)c3cc(OC)ccc3o2)cc1` [6,4'-dimethoxyflavone], for which the phenotypic hit is inactive: 0.

As to `C[C@H]1[C@H](C)CC[C@]2(CO)CC[C@]3(C)C(=CC[C@@H]4[C@@]5(C)CC[C@H](O)C(C)(C)[C@@H]5CC[C@]43C)[C@H]12` [uvaol], the phenotypic hit was inactive: 0.

On to `C=CC(C1=CC(=O)C(OC)=CC1=O)c1ccc(OC)cc1` (centres undefined) [4,4'-dimethoxydalbergione], for which the phenotypic hit was inactive: 0.

Turning to `COc1ccc(-c2cc(=O)c3c(O)c(OC)c(O[C@@H]4O[C@H](CO[C@@H]5O[C@@H](C)[C@H](O)[C@@H](O)[C@H]5O)[C@@H](O)[C@H](O)[C@H]4O)cc3o2)cc1` [pectolinarin], the phenotypic hit is active: 1.

In the case of `Cn1c(=O)[nH]c(=O)c2[nH]cnc21` [3-methylxanthine], the phenotypic hit was inactive: 0.

`O=C(C1CCCCC1)N1CC(=O)N2CCc3ccccc3C2C1` (centres undefined) [praziquantel]: the phenotypic hit is active: 1.

Regarding `O=C(O)[C@@H](O)[C@H](O)[C@H](O)[C@@H](O)C(=O)O` [mucic acid], the phenotypic hit was inactive: 0.

On to `COc1ccc2c(c1)c(CC(=O)O)c(C)n2C(=O)c1ccc(Cl)cc1` [Indomethacin], for which the phenotypic hit was inactive: 0.

In the case of `Oc1cc(O)c2c(c1)O[C@H](c1ccc(O)c(O)c1)[C@H](O)C2` [epicatechin], the phenotypic hit was inactive: 0.

As for `C=C1c2c(Cl)ccc(O)c2C(=O)C2=C(O)[C@]3(O)C(=O)C(C(N)=O)=C(O)[C@@H](N(C)C)[C@@H]3[C@@H](O)[C@H]12.O=C(O)c1cc(S(=O)(=O)O)ccc1O` [meclocycline sulfosalicylate], the phenotypic hit is inactive: 0.

With `O=C1C=C(O)C(=O)c2ccccc21` [lawsone], the phenotypic hit is inactive: 0.

`COc1ccc2c(c1OC)C(=O)O[C@@H]2[C@H]1c2c(cc3c(c2OC)OCO3)CCN1C` [noscapine hydrochloride]: the phenotypic hit was inactive: 0.

As for `O=C1c2c(O)cccc2C([C@@H]2O[C@H](CO)[C@@H](O)[C@H](O)[C@H]2O)c2cc(CO)cc(O)c21` (some centres undefined) [aloin], the phenotypic hit is inactive: 0.

In the case of `Nc1nc2[nH]cnc2c(=S)[nH]1` [thioguanine], the phenotypic hit was inactive: 0.

Take `CN(C)C(=O)C(CCN1CCC(O)(c2ccc(Cl)cc2)CC1)(c1ccccc1)c1ccccc1` [Loperamide hydrochloride]: the phenotypic hit was inactive: 0.

For the compound `CC(=O)OC1CCC2(C)C(=CCC3C2CCC2(C)C(C(C)CCCC(C)C)CCC32)C1` (centres undefined) [cholesteryl acetate], the phenotypic hit was inactive: 0.

For `CC(C)=CCC[C@@H](C)[C@H]1CC[C@@]2(C)C3=C(CC[C@]12C)[C@@]1(C)CC[C@H](O)C(C)(C)[C@@H]1CC3` [lanosterol], the phenotypic hit is inactive: 0.

Regarding `O=c1ccc2cc(O)c(O)cc2o1` [esculetin], the phenotypic hit is inactive: 0.

As for `C[C@H](CCC(=O)O)[C@H]1CC[C@H]2[C@@H]3[C@H](O)C[C@@H]4C[C@H](O)CC[C@]4(C)[C@H]3C[C@H](O)[C@]12C` [cholic acid], the phenotypic hit was inactive: 0.

Turning to `Cc1cc(O)c2c(c1)C(=O)c1cccc(O)c1C2=O` [chrysophanol], the phenotypic hit is inactive: 0.

Turning to `CC(C(=O)O)c1ccc(-c2ccccc2)c(F)c1` (centres undefined) [flurbiprofen], the phenotypic hit was inactive: 0.

With `O=C(OCC(O)CO)c1ccccc1Nc1ccnc2cc(Cl)ccc12` (centres undefined) [glafenine], the phenotypic hit is inactive: 0.

As for `C[C@H]1O[C@@H](O[C@H]2[C@@H](O)C[C@H](O[C@H]3[C@@H](O)C[C@H](O[C@H]4CC[C@@]5(C)[C@H](CC[C@@H]6[C@@H]5C[C@@H](O)[C@]5(C)[C@@H](C7=CC(=O)OC7)CC[C@]65O)C4)O[C@@H]3C)O[C@@H]2C)C[C@H](O)[C@@H]1O` [digoxin], the phenotypic hit is inactive: 0.

Regarding `COc1cc([S+](C)[O-])ccc1-c1nc2cccnc2[nH]1` (centres undefined) [sulmazole], the phenotypic hit was inactive: 0.

Take `COc1ccccc1OCC(O)CO` (centres undefined) [guaifenesin]: the phenotypic hit was inactive: 0.

On to `COc1cc(C)c2c(c1C=O)Oc1c(c(C)c(O)c3c1C(O)OC3=O)OC2=O` (centres undefined) [stictic acid], for which the phenotypic hit is inactive: 0.

In the case of `NC[C@@H]1O[C@H](O[C@H]2[C@@H](O)[C@H](O[C@@H]3[C@@H](O)[C@H](N)C[C@H](N)[C@H]3O[C@H]3O[C@H](CO)[C@@H](O)[C@H](O)[C@H]3N)O[C@@H]2CO)[C@H](N)[C@@H](O)[C@@H]1O` [paromomycin sulfate], the phenotypic hit was inactive: 0.

For the compound `Cc1cc(=O)[nH]c(=S)[nH]1` [methylthiouracil], the phenotypic hit is inactive: 0.

Regarding `Cc1cccc(C)c1OCC(C)N` (centres undefined) [mexiletine hydrochloride], the phenotypic hit was inactive: 0.

For the compound `Oc1ccc(/C=C/c2cc(O)cc(O)c2)cc1` [resveratrol], the phenotypic hit was inactive: 0.
